Results from the RNAGym collection of RNA variant scans (doi:10.7554/elife.90254).
Read counts are not given, so values of variants with three or more changes are uncertain.

B1: LINE1-mini (parent)
chain: GGCAGAGCUCAACACAGCGUGGCAAAGUGGCUGUGGCUAGACUGCC

Variants of: B1
Assay: self-cleavage, relative activity (ratio to wild type); higher = more cleavage; in vitro, sequencing; the parent is a self-cleaving ribozyme
G1A G2A A11C C13A G27C gave a self-cleavage of 0.04.
Work on G1A C31G C45A yielded a self-cleavage of 0.01.
For G1A A4G C23U G36A U38G C42G, the self-cleavage was 0.01.
For G1A A16U G21A C23U U28G G29C, the self-cleavage was 0.07.
G1A A6U C8U U9A G21C G22A C23U G35U showed a self-cleavage of 0.31.
For G1A C23U A25G G36U, the self-cleavage was 0.21.
G1A C31U U32C U34C showed a self-cleavage of 0.05.
With G1A C3U A11G A14C A26G the self-cleavage was 0.05.
In the case of G1A C8G G19A G27U U34A, the self-cleavage is reported as 0.08.
For G1A G2A G22A G35C, the self-cleavage was 0.25.
In the case of G1A A16C G36A G40A, the self-cleavage is reported as 0.04.
In the case of G1A G2A C10G G35A G40A, the self-cleavage is reported as 0.06.
With G1A A11C A12G G17U C37A the self-cleavage was 0.02.
For G1A A11C G21C, the self-cleavage was 0.05.
G1A A6C A11G C15G showed a self-cleavage of 0.04.
G1A C10G C18U gave a self-cleavage of 0.29.
Work on G1A C10A G19A U28A U34G G40C yielded a self-cleavage of 0.02.
In the case of G1A C10U G30U U34G C45U, the self-cleavage is reported as 0.09.
In the case of G1A C8A A11U A39C G40A, the self-cleavage is reported as 0.03.
With G1A G2C A11U A39U the self-cleavage was 0.01.
With G1A A4C C15G A16C C23A the self-cleavage was 0.1.
Variant G1A A16U C23A has a self-cleavage of 0.08.
With G1A A6C G17C U43A the self-cleavage was 0.05.
G1A A11G A14C gave a self-cleavage of 0.03.
G1A A11U A24U U38G showed a self-cleavage of 0.
G1A A14G G36A showed a self-cleavage of 0.14.
In the case of G1A C37G G40C, the self-cleavage is reported as 0.02.
With G1A G2C G22A U38G A39U G40C C45G the self-cleavage was 0.02.
With G1A C13A A26C the self-cleavage was 0.13.
Work on G1A C18G U32A U34C yielded a self-cleavage of 0.06.
Work on G1A G2A A6U U38A yielded a self-cleavage of 2.06.
G1A A12C G30U G33C A41C C42A G44A gave a self-cleavage of 0.
In the case of G1A G2A A4G G44A, the self-cleavage is reported as 0.16.
For G1A A24G C45G, the self-cleavage was 0.11.
Variant G1A C10G C13U has a self-cleavage of 0.1.
Variant G1A C13G A26U G33A has a self-cleavage of 0.07.
Variant G1A C18A C23A C42A has a self-cleavage of 0.03.
G1A C10U A14G C23U A26G G27A showed a self-cleavage of 0.91.
G1A C18A U20G G40C gave a self-cleavage of 0.01.
G1A C15U G30U gave a self-cleavage of 0.13.
Variant G1A C10A A14G C18G G19C has a self-cleavage of 0.01.
G1A A6G C37G U38G showed a self-cleavage of 0.01.
In the case of G1A A16U C42A, the self-cleavage is reported as 0.19.
For G1A A26G U38G, the self-cleavage was 0.02.
Work on G1A C37U A41C yielded a self-cleavage of 0.
Work on G1A G2A G19A G29U yielded a self-cleavage of 2.02.
For G1A A6G C8U A12G G30U C42A, the self-cleavage was 0.26.
G1A C10G G19U U32G C45G showed a self-cleavage of 0.01.
Variant G1A C18U U32A has a self-cleavage of 0.08.
G1A C3U A12U C23A C46U gave a self-cleavage of 0.32.
For G1A A4G U20G, the self-cleavage was 0.23.
G1A C3A G7U G21A C45G showed a self-cleavage of 1.
G1A C10G G19U U20C G22C U34C G40C gave a self-cleavage of 0.02.
Work on G1A A16U U28G U34G yielded a self-cleavage of 0.03.
With G1A A14U A26U the self-cleavage was 0.72.
With G1A A11G C18U the self-cleavage was 0.11.
In the case of G1A C15A C18U G44A, the self-cleavage is reported as 0.06.
Work on G1A C10A U38A yielded a self-cleavage of 0.03.
In the case of G1A C8G C15U, the self-cleavage is reported as 0.43.
G1A C8G C15A gave a self-cleavage of 0.11.
Work on G1A G2A A26C C31G yielded a self-cleavage of 0.14.
G1A A4G A6U U32A showed a self-cleavage of 0.04.
Work on G1A C8A C45U yielded a self-cleavage of 0.63.
For G1A C15G U20C A24G, the self-cleavage was 0.03.
For G1A G2A C37U C45G, the self-cleavage was 0.17.
For G1A C3U C23U G30U A41U C45A, the self-cleavage was 0.99.
Work on G1A A11C C18U A25G G30U yielded a self-cleavage of 0.02.
G1A C13U C31U G44C gave a self-cleavage of 0.06.
G1A C37A G40C gave a self-cleavage of 0.04.
In the case of G1A A6G G33U, the self-cleavage is reported as 0.06.
Variant G1A A6G G33C has a self-cleavage of 0.01.
Work on G1A C8G G40A yielded a self-cleavage of 0.05.
Work on G1A A25U C31U yielded a self-cleavage of 0.11.
Work on G1A C3G G36U U38G A39U yielded a self-cleavage of 0.47.
Work on G1A A6G G30U yielded a self-cleavage of 0.18.
In the case of G1A C8A G29C U34A, the self-cleavage is reported as 0.28.
With G1A A11U G35A the self-cleavage was 0.
With G1A A14C G19A G22A A25G G33C the self-cleavage was 0.04.
Work on G1A C13U C18U G27C yielded a self-cleavage of 0.08.
In the case of G1A C3U G7C G17C, the self-cleavage is reported as 0.46.
G1A C15G G19C G40U showed a self-cleavage of 0.03.
G1A G2C A14U G21A showed a self-cleavage of 0.11.
Variant G1A A6U C8G G29A has a self-cleavage of 0.47.
Work on G1A C8G A25C yielded a self-cleavage of 0.2.
